Test results as given in patent US5744450A, “GnRH analogs” (The Salk Institute for Biological Studies, priority 1995, dated 1998).
Part of at least one peptide drawing is inferred or uncertain, most often the ends. Numbered stars: 1 amine (or outer) side, 2 acyl side, 3 side chain; on linkers, the order of the positions; unused ones are H or OH. Square brackets hold non-standard residues; d marks the D form. Peptide text beside a SMILES is read from it. * marks the point of attachment. Phe(4-NH(5-NH2triazol-3-yl)) = Nc1nc(Nc2ccc(C[C@H](N)C(=O)O)cc2)n[nH]1; dLys(Nε-C(NCN)NHBu) = CCCCNC(=NC#N)NCCCC[C@@H](N)C(=O)O; X1 = Nc1nc(Nc2ccc(C[C@@H](N[*:1])C(=O)[*:2])cc2)n[nH]1; X13 = N#CN=C(NCCCC[C@@H](N[*:1])C(=O)[*:2])NCc1ccccn1; hArg(ω-Bu,ω'-CN) = CCCC/N=C(\NC#N)NCCCC[C@H](N)C(=O)O; X28 = N#CN=C(NCCC[C@@H](N[*:1])C(=O)[*:2])NCc1ccccn1; X8 = CCCCNC(=NC(N)=O)NCCCC[C@H](N[*:1])C(=O)[*:2]; Triazol3yl(1,2,4-5-NH2) = Nc1nc(*)n[nH]1; dPhe(4-Cl) = N[C@H](Cc1ccc(Cl)cc1)C(=O)O; d2Nal = N[C@H](Cc1ccc2ccccc2c1)C(=O)O; Lys(iPr) = CC(C)NCCCC[C@H](N)C(=O)O; d3Pal = N[C@H](Cc1cccnc1)C(=O)O; NMeL = CN[C@@H](CC(C)C)C(=O)O; dOrn = NCCC[C@@H](N)C(=O)O

Legend:
[1] = test system: ovulation in female rats; test: in vivo test of effectiveness to prevent ovulation in female rats; parameters: species or system rat; conditions: injected about noon on day of proestrus, female Sprague-Dawley rats, ovulating/treated
[2] = test system: LH levels in the bloodstream; test: LH levels in the bloodstream of castrate male rats after single IV bolus injection; type: in vivo, rat; conditions: adult castrate male Sprague-Dawley rats, 50 microgram IV, LH at about 3, 24, 36 and 48 hours; vs control and Nal-Glu antagonist
[3] = test system: release of LH and FSH; test: in vivo biological testing of GnRH agonists (release of LH and FSH in female rats); parameters: species or system rat; conditions: GnRH agonist

For `CC(=O)N[C@H](Cc1ccc2ccccc2c1)C(=O)N[C@H](Cc1ccc(Cl)cc1)C(=O)N[C@H](Cc1cccnc1)C(=O)N[C@@H](CO)C(=O)N[C@@H](Cc1ccc(Nc2n[nH]c(N)n2)cc1)C(=O)N[C@H](Cc1ccc(Nc2n[nH]c(N)n2)cc1)C(=O)N[C@@H](CC(C)C)C(=O)N[C@@H](CCCCNC(C)C)C(=O)N1CCC[C@H]1C(=O)N[C@H](C)C(N)=O` [Peptide 103A, Ac-β-D-2NAL-(4Cl)D-Phe-D-3PAL-Ser-Aph(3-amino 1,2,4 triazole)-D-Aph(3-amino 1,2,4 triazole)-Leu-Lys(isopropyl)-Pro-D-Ala-NH2] (Ac-[d2Nal][dPhe(4-Cl)][d3Pal]S[Phe(4-NH(5-NH2triazol-3-yl))][X1]L[Lys(iPr)]P[dA]-NH2), the “Rats Ovulating” value ([1]; dosage 0.5 micrograms) was 7/8, the “Rats Ovulating” value ([1]; dosage 1.0 micrograms) was 0/7 and the “Rats Ovulating” value ([1]; dosage 2.5 micrograms) was 0/8. For the same molecule, the “suppression of the level of circulating LH” value [2] was “surprisingly effective to suppress the level of circulating LH in the bloodstream of male rats, at levels very substantially below that of the control and, after 12 hours, below that of the rats treated with the Nal-Glu antagonist”.

With `CC(=O)N[C@H](Cc1ccc2ccccc2c1)C(=O)N[C@H](Cc1ccc(Cl)cc1)C(=O)N[C@H](CCCCNC(=NC#N)NCc1ccccn1)C(=O)N[C@@H](CO)C(=O)N[C@@H](Cc1ccc(O)cc1)C(=O)N[C@H](Cc1cccnc1)C(=O)N[C@@H](CC(C)C)C(=O)N[C@@H](CCCCNC(C)C)C(=O)N1CCC[C@H]1C(=O)N[C@H](C)C(N)=O` [Peptide 120] (Ac-[d2Nal][dPhe(4-Cl)][X13]SY[d3Pal]L[Lys(iPr)]P[dA]-NH2) the “Rats Ovulating” value ([1]; dosage 1.0 micrograms) was 6/7 and the “Rats Ovulating” value ([1]; dosage 2.5 micrograms) was 0/8.

For `CCCCNC(=NC#N)NCCCC[C@@H](NC(=O)[C@H](Cc1ccc(O)cc1)NC(=O)[C@H](CO)NC(=O)[C@@H](CCCCNC(=NC#N)NCCCC)NC(=O)[C@@H](Cc1ccc(Cl)cc1)NC(=O)[C@@H](Cc1ccc2ccccc2c1)NC(C)=O)C(=O)N[C@@H](CC(C)C)C(=O)N[C@@H](CCCCNC(C)C)C(=O)N1CCC[C@H]1C(=O)N[C@H](C)C(N)=O` [Peptide 122A] (Ac-[d2Nal][dPhe(4-Cl)][dLys(Nε-C(NCN)NHBu)]SY[dLys(Nε-C(NCN)NHBu)]L[Lys(iPr)]P[dA]-NH2), the “Rats Ovulating” value ([1]; dosage 2.5 micrograms) was 5/6 and the “Rats Ovulating” value ([1]; dosage 5.0 micrograms) was 0/6.

With `CCCCNC(=NC#N)NCCCC[C@H](NC(=O)[C@H](CO)NC(=O)[C@@H](CCCCNC(=NC#N)NCCCC)NC(=O)[C@@H](Cc1ccc(Cl)cc1)NC(=O)[C@@H](Cc1ccc2ccccc2c1)NC(C)=O)C(=O)N[C@H](CCCCNC(=NC#N)NCCCC)C(=O)N[C@@H](CC(C)C)C(=O)N[C@@H](CCCCNC(C)C)C(=O)N1CCC[C@H]1C(=O)N[C@H](C)C(N)=O` [Peptide 122] (Ac-[d2Nal][dPhe(4-Cl)][dLys(Nε-C(NCN)NHBu)]S[hArg(ω-Bu,ω'-CN)][dLys(Nε-C(NCN)NHBu)]L[Lys(iPr)]P[dA]-NH2) the “Rats Ovulating” value ([1]; dosage 10 micrograms) was 4/6.

In the case of `CCCCNC(=NC(N)=O)NCCCC[C@H](NC(=O)[C@H](CO)NC(=O)[C@@H](Cc1cccnc1)NC(=O)[C@@H](Cc1ccc(Cl)cc1)NC(=O)[C@@H](Cc1ccc2ccccc2c1)NC(C)=O)C(=O)N[C@H](Cc1ccc2ccccc2c1)C(=O)N[C@@H](CC(C)C)C(=O)N[C@@H](CCCNC(=N)N)C(=O)N1CCC[C@H]1C(=O)N[C@H](C)C(N)=O` [Peptide 123] (Ac-[d2Nal][dPhe(4-Cl)][d3Pal]S[X8][d2Nal]LRP[dA]-NH2), the “Rats Ovulating” value ([1]; dosage 5.0 micrograms) is reported as 0/6 and the “Rats Ovulating” value ([1]; dosage 10 micrograms) is reported as 1/10.

`CC(=O)N[C@H](Cc1ccc2ccccc2c1)C(=O)N[C@H](Cc1ccc(Cl)cc1)C(=O)N[C@H](CCCNc1n[nH]c(N)n1)C(=O)N[C@@H](CO)C(=O)N[C@@H](Cc1ccc(O)cc1)C(=O)N[C@H](Cc1cccnc1)C(=O)N[C@@H](CC(C)C)C(=O)N[C@@H](CCCCNC(C)C)C(=O)N1CCC[C@H]1C(=O)N[C@H](C)C(N)=O` [Peptide 125A] (Ac-[d2Nal][dPhe(4-Cl)][dOrn](Triazol3yl(1,2,4-5-NH2))SY[d3Pal]L[Lys(iPr)]P[dA]-NH2) was tested, and the “Rats Ovulating” value ([1]; dosage 2.5 micrograms) was 1/7 and the “Rats Ovulating” value ([1]; dosage 5.0 micrograms) was 1/8.

For `CC(=O)N[C@H](Cc1ccc2ccccc2c1)C(=O)N[C@H](Cc1ccc(Cl)cc1)C(=O)N[C@H](Cc1cccnc1)C(=O)N[C@@H](CO)C(=O)N[C@@H](Cc1ccc(Nc2n[nH]c(N)n2)cc1)C(=O)N[C@H](Cc1ccc(Nc2n[nH]c(N)n2)cc1)C(=O)N(C)[C@@H](CC(C)C)C(=O)N[C@@H](CCCCNC(C)C)C(=O)N1CCC[C@H]1C(=O)N[C@H](C)C(N)=O` [Peptide 125C] (Ac-[d2Nal][dPhe(4-Cl)][d3Pal]S[Phe(4-NH(5-NH2triazol-3-yl))][X1][NMeL][Lys(iPr)]P[dA]-NH2), the “Rats Ovulating” value ([1]; dosage 0.5 micrograms) was 6/10 and the “Rats Ovulating” value ([1]; dosage 1.0 micrograms) was 0/8.

`CCNC(=O)[C@@H]1CCCN1C(=O)[C@H](CCCCNC(C)C)NC(=O)[C@H](CC(C)C)NC(=O)[C@@H](Cc1ccc(Nc2n[nH]c(N)n2)cc1)NC(=O)[C@H](Cc1ccc(Nc2n[nH]c(N)n2)cc1)NC(=O)[C@H](CO)NC(=O)[C@@H](Cc1cccnc1)NC(=O)[C@@H](Cc1ccc(Cl)cc1)NC(=O)[C@@H](Cc1ccc2ccccc2c1)NC(C)=O` [Peptide 125D] (Ac-[d2Nal][dPhe(4-Cl)][d3Pal]S[Phe(4-NH(5-NH2triazol-3-yl))][X1]L[Lys(iPr)]P-NHEt) was tested, and the “Rats Ovulating” value ([1]; dosage 1.0 micrograms) was 8/9 and the “Rats Ovulating” value ([1]; dosage 2.5 micrograms) was 0/8.

For `CCNC(=O)[C@@H]1CCCN1C(=O)[C@H](CCCCNC(C)C)NC(=O)[C@H](CC(C)C)N(C)C(=O)[C@@H](Cc1ccc(Nc2n[nH]c(N)n2)cc1)NC(=O)[C@H](Cc1ccc(Nc2n[nH]c(N)n2)cc1)NC(=O)[C@H](CO)NC(=O)[C@@H](Cc1cccnc1)NC(=O)[C@@H](Cc1ccc(Cl)cc1)NC(=O)[C@@H](Cc1ccc2ccccc2c1)NC(C)=O` [Peptide 125E] (Ac-[d2Nal][dPhe(4-Cl)][d3Pal]S[Phe(4-NH(5-NH2triazol-3-yl))][X1][NMeL][Lys(iPr)]P-NHEt), the “Rats Ovulating” value ([1]; dosage 10 micrograms) was 0/5.

`CC(=O)N[C@H](Cc1ccc2ccccc2c1)C(=O)N[C@H](Cc1ccc(Cl)cc1)C(=O)N[C@H](CCCNC(=NC#N)NCc1ccccn1)C(=O)N[C@@H](CO)C(=O)N[C@@H](Cc1ccc(O)cc1)C(=O)N[C@H](Cc1ccc2ccccc2c1)C(=O)N[C@@H](CC(C)C)C(=O)N[C@@H](CCCCNC(C)C)C(=O)N1CCC[C@H]1C(=O)N[C@H](C)C(N)=O` [Peptide 125] (Ac-[d2Nal][dPhe(4-Cl)][X28]SY[d2Nal]L[Lys(iPr)]P[dA]-NH2) was tested, and the “Rats Ovulating” value ([1]; dosage 2.5 micrograms) was 3/7.

With `CC(C)C[C@H](NC(=O)[C@@H](Cc1ccc(Nc2n[nH]c(N)n2)cc1)NC(=O)[C@H](Cc1ccc(O)cc1)NC(=O)[C@H](CO)NC(=O)[C@H](Cc1c[nH]c2ccccc12)NC(=O)[C@H](Cc1c[nH]cn1)NC(=O)[C@@H]1CCC(=O)N1)C(=O)N[C@@H](CCCNC(=N)N)C(=O)N1CCC[C@H]1C(=O)NCC(N)=O` [Peptide 134A] the “biological potency in vivo compared with Peptide 130A” value [3] was “just slightly less biologically potent than Peptide 130A”.
